Data taken from the supplement of paper PMC11348887.
Several values for one entry are separate records, joined by “and”; a condition that tells them apart may be missing. Equal values may be shown once. Where a name gives a salt, the structure may show the parent alone. Some of the results follow. No stated cut-off is given here; in the data, active = -2 or less and inactive = the rest. Many values rest on one well or one pass, so single values are uncertain.

These molecules were tested on hPSC-derived cortical neurons (WA09) (assay: nuclei number (viability) z-score; higher = more surviving cells). Conditions: 5 µM; treatment: days 7-14 after plating, readout day 21.
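Further: nuclei counted from DAPI counterstain by automated high-content image analysis, four fields per well at ×20 in 384-well plates, with sequential b-score then z-score normalization.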

SMILES | nuclei number (z-score)
Cc1ccc(S(=O)(=O)OCC(=O)Nc2ccc(C(=O)O)c(O)c2)cc1 | inactive: 0.733
COc1ccc(-c2cc(=O)c3c(OC)c(OC)c(OC)c(OC)c3o2)cc1OC [Nobiletin] | inactive: -1
Cc1ccc(C(=O)Nc2cccc(C(F)(F)F)c2)cc1Nc1nc(-c2cccnc2)nc2c1cnn2C | inactive: 0.173
CCOC(=O)N1c2ccc(C(F)(F)F)cc2[C@@H](N(Cc2cc(C(F)(F)F)cc(C(F)(F)F)c2)C(=O)OC)C[C@H]1CC [Torcetrapib] | inactive: -0.822
O=c1cc[nH]c(=O)[nH]1 [Uracil] | inactive: -0.0218
CO[C@H]1C[C@@H]2CC[C@@H](C)[C@@](O)(O2)C(=O)C(=O)N2CCCC[C@H]2C(=O)O[C@H]([C@H](C)C[C@@H]2CC[C@@H](OC(=O)C(C)(CO)CO)[C@H](OC)C2)CC(=O)[C@H](C)/C=C(\C)[C@@H](O)[C@@H](OC)C(=O)[C@H](C)C[C@H](C)/C=C/C=C/C=C/1C | inactive: 0.0362
CCC[C@@H]1C[C@@H](C(=O)N[C@@H]([C@H]2O[C@H](SC)[C@H](O)[C@@H](O)[C@H]2O)[C@@H](C)O)N(C)C1 [Lincomycin HCl] | inactive: -0.176
N#Cc1c(Oc2ccc(F)c(NC(=O)Cc3cccc(C(F)(F)F)c3)c2)ccc2nc(NC(=O)C3CC3)sc12 | inactive: 0.625
O=C(O)c1ccc(C=C2SC(=S)N(c3cccc(C(F)(F)F)c3)C2=O)cc1 | inactive: 1.06
COc1ccc(-c2cc(=O)c3c(OC)c(OC)c(OC)c(OC)c3o2)cc1 [Tangeretin] | inactive: 0.388
Cc1ccc(CNc2ncnc3ccc(-c4ccc(CO)o4)cc23)o1 | inactive: 2.07
CN1C(C(=O)Nc2ccccn2)=C(O)c2sc(Cl)cc2S1(=O)=O [Lornoxicam] | inactive: -0.339
CC12CC3CC(C)(C1)CC(N)(C3)C2 [Memantine HCl] | inactive: -0.66
Cc1cc(C)nc(NS(=O)(=O)c2ccc(NC(=S)NC(=O)COc3ccc(Br)cc3Cl)cc2)n1 | inactive: 0.605
O=C(Nc1cccnc1)N1CCC(Cc2cccc(Oc3ccc(C(F)(F)F)cn3)c2)CC1 | inactive: 3.42
Cc1cccc(-c2nn3c(c2-c2ccnc4ccc(C(N)=O)cc24)CCC3)n1 | inactive: 5.02
CC(C)c1nc(CN(C)C(=O)N[C@@H](CCN2CCOCC2)C(=O)N[C@H](CC[C@H](Cc2ccccc2)NC(=O)OCc2cncs2)Cc2ccccc2)cs1 [Cobicistat (GS-9350)] | inactive: 0.157
Cc1ccc(Sc2cncc3sc(C(N)=O)cc23)cc1 | inactive: 6.98
Nc1cc(C(F)(F)F)c(-c2cc(N3CCOCC3)nc(N3CCOCC3)n2)cn1 [BKM120 (NVP-BKM120_ Buparlisib)] | inactive: -1.29
Cc1c(C(=O)Nc2ccc(N3C[C@@H](C)O[C@@H](C)C3)nc2)cccc1-c1ccc(OC(F)(F)F)cc1 [LDE225 (NVP-LDE225_Erismodegib)] | inactive: -0.616
Cc1cnc(NC(=O)Nc2cc(Br)c(C)cc2OC[C@@H]2CNCCO2)cn1 | inactive: 0.00471
CCOC(N)=O [Urethane] | inactive: 6.95
COc1cccc(-c2cc(F)ccc2C2Cc3nc(N)nc(C)c3C(=O)N2)n1 (centres undefined) | active: -4.57

SMILES | nuclei number (z-score)
O=c1cc(N2CCOCC2)oc2c(-c3ccccc3)cccc12 | inactive: 0.17
O=C1c2cccc(O)c2C(=O)c2c(O)cccc21 [Danthron] | inactive: 0.103
COc1cc(Nc2ncc3c(n2)-c2ccc(Cl)cc2C(c2c(F)cccc2OC)=NC3)ccc1C(=O)O [Alisertib (MLN8237)] | active: -3.31
CCCCC(=O)N(Cc1ccc(-c2ccccc2-c2nnn[nH]2)cc1)[C@H](C(=O)O)C(C)C [Valsartan] | inactive: 1.6
CCc1ccc(/C=C2/SC(=S)NC2=O)cc1 | inactive: 2.72
Cc1ccc(Nc2nccc(N(C)c3ccc4c(C)n(C)nc4c3)n2)cc1S(N)(=O)=O | inactive: -0.0132
Cc1ccc(Nc2nccc(N(C)c3ccc4c(C)n(C)nc4c3)n2)cc1S(N)(=O)=O [Pazopanib] | inactive: 1.17
CCOC(CN1CCN(CC(C)C(=O)c2ccccc2)CC1)c1ccccc1 (centres undefined) [Eprazinone 2HCl] | inactive: -0.135
OCC(CO)N[C@H]1C[C@](O)(CO)[C@@H](O)[C@H](O)[C@H]1O [Voglibose] | inactive: 10.7
C=CCNc1ncnc2ccc(Br)cc12 | inactive: 1.32
COC(=O)/C=C/C(=O)OC [Dimethyl Fumarate] | inactive: 0.161
C[N+](C)(C)CCOC(N)=O [Carbachol] | inactive: 0.957
CC(C)c1cc(C(C)C)c(CC(=O)NS(=O)(=O)Oc2c(C(C)C)cccc2C(C)C)c(C(C)C)c1 [Avasimibe] | inactive: 3.46
O=C(NNc1nc2cc(F)ccc2n2cccc12)c1cnccn1 | active: -2.74
O=C(NC(Cc1cc(=O)[nH]c2ccccc12)C(=O)O)c1ccc(Cl)cc1 (centres undefined) [Rebamipide] | inactive: 0.252
COc1ccc2[nH]cc(/C=C3\C(=O)Nc4ccc(NC(=O)CCN5CCCCC5)cc43)c2c1 | inactive: -0.714
CCOC(=O)c1ccc(NC2CCCCC2)c(N)c1 [Ferrostatin-1 (Fer-1)] | inactive: 0.482
O=C1c2c(O)ccc(O)c2C(=O)c2c(NCCNCCO)ccc(NCCNCCO)c21 [Mitoxantrone] | active: -5.14
O=C1c2c(O)ccc(O)c2C(=O)c2c(NCCNCCO)ccc(NCCNCCO)c21 [Mitoxantrone HCl] | active: -5
CC1(C)CC[C@]2(NC(=O)C(C)(F)F)CC[C@]3(C)[C@H](C(=O)C=C4[C@@]5(C)C=C(C#N)C(=O)C(C)(C)[C@@H]5CC[C@]43C)[C@@H]2C1 [Omaveloxolone (RTA-408)] | active: -2.46
CN1CCN(Cc2ccc(-c3cnc4[nH]cc(-c5ccc6[nH]ccc6c5)c4c3)cc2)CC1 | active: -5.5
C[C@H](CCC(=O)O)[C@H]1CC[C@H]2[C@@H]3C(=O)C[C@@H]4CC(=O)CC[C@]4(C)[C@H]3CC(=O)[C@]12C [Dehydrocholic acid] | inactive: 0.678
CCOC(=O)C1=C(C)NC(C)=C(C(=O)OC)C1c1cccc(Cl)c1Cl (centres undefined) [Felodipine] | inactive: -1.27

SMILES | nuclei number (z-score)
CCCCc1ncc(/C=C(\Cc2cccs2)C(=O)O)n1Cc1ccc(C(=O)O)cc1 [Eprosartan Mesylate] | inactive: -0.997
CN1CCCN(C(=O)c2cccc(-c3ccc(/C=C4/C(=O)Nc5ccc(Cl)cc54)o3)c2)CC1 | active: -6.62
CCCCCCCCOc1ccccc1C(=O)Nc1ccc(C(=O)OCC[N+](C)(CC)CC)cc1 [Otilonium Bromide] | active: -6.08
CN1CCN2c3ccccc3Cc3ccccc3C2C1 (centres undefined) [Mianserin HCl] | inactive: 0.715
O=C(O)CCC(=O)c1ccc(-c2ccccc2)cc1 [Fenbufen] | active: -2.78
O=C(Nc1ccccc1)N1CCN(c2nc(-c3ccccc3)ns2)CC1 | inactive: 0.553
Clc1cccc(CN=C2Nc3ccccc3NC23CCNCC3)c1 [Liproxstatin-1] | inactive: 0.608
CC(C)C[C@H](NC(=O)[C@@H](Cc1cccc2ccccc12)NC(=O)[C@H](Cc1ccc(O)cc1)NC(=O)[C@H](CO)NC(=O)[C@H](Cc1c[nH]c2ccccc12)NC(=O)[C@H](Cc1cnc[nH]1)NC(=O)[C@@H]1CCC(=O)N1)C(=O)N[C@@H](CCCNC(=N)N)C(=O)N1CCC[C@H]1C(=O)NCC(N)=O [Nafarelin Acetate] | inactive: 1.29
CC(CNC(=O)c1cccnc1)NC(=O)c1cccnc1 (centres undefined) [Nicaraven] | inactive: 3.4
O=C(c1ccc(Cl)cc1)N(Cc1ccccc1)C1CCCCC1 | inactive: 0.677
CN(c1ncccc1CNc1nc(Nc2ccc3c(c2)CC(=O)N3)ncc1C(F)(F)F)S(C)(=O)=O | inactive: 0.0601 and inactive: -0.218 and inactive: -0.507
CCc1ccc(OCc2ccccc2C(=O)Nc2ccc3nc(C)cc(N)c3c2)cc1 | active: -5.44
CN(C)CCc1c[nH]c2ccc(CS(=O)(=O)N3CCCC3)cc12 [Almotriptan Malate] | inactive: -0.483
Cn1nc(C(C)(C)C)cc1C(=O)N[C@@H](Cc1cccc(Cl)c1)C(=O)NCC#N [Cathepsin Inhibitor 1] | active: -2.27
NNC(=O)c1ccncc1.Nc1ccc(C(=O)O)c(O)c1 [Pasiniazid] | inactive: 0.33
CN(C[C@@H]1COCCO1)S(=O)(=O)Nc1ccc2ccc3ncc(-c4cnn(C)c4)cc3c(=O)c2c1 | inactive: 1.49
CCCc1nn(C)c2c(=O)[nH]c(-c3cc(S(=O)(=O)N4CCN(C)CC4)ccc3OCC)nc12 [Sildenafil] | inactive: 1.5
CCCc1nn(C)c2c(=O)[nH]c(-c3cc(S(=O)(=O)N4CCN(C)CC4)ccc3OCC)nc12 [Sildenafil Citrate] | inactive: 0.107
CCCc1nn(C)c2c(=O)[nH]c(-c3cc(S(=O)(=O)N4CCN(C)CC4)ccc3OCC)nc12 [Sildenafil Mesylate] | inactive: 0.00382
O=[N+]([O-])c1ccc(O)c2ncccc12 [Nitroxoline] | inactive: -0.696
N#CC[C@H](C1CCCC1)n1cc(-c2ncnc3[nH]ccc23)cn1 | inactive: -0.353
CC(=O)Oc1ccc(C(c2ccc(OC(C)=O)cc2)c2ccccn2)cc1 [Bisacodyl] | inactive: -0.682
CCOC(=O)CC(=O)N1CCSC1COc1ccccc1OC (centres undefined) [Moguisteine] | inactive: 0.00726
